# The other results are listed elsewhere or left out.
# B1: PpFlo2 (Pichia pastoris) (protein)
# chain: MGSSHHHHHHSSGLVPRGSHMDDSGNGDNSDTAYGCDITTNAVDGFDATIYQYNANDLRLIRDPTFMSTGYLGRNVLNKISGVTVPGFNIWNPSSRTATVYGVKNVNYYNMVLELKGYFKADVSGDYKLTLSHIDDSSMLFFGKETAFKCCDAGSIPLNEAPTDYSLFTIKPSNQVNSEVISATQYLEAGKYYPVRIVFVNALERARFDFKLTIPSGAVLDDFQNYIYQFGDLDENSCHE
# Experiments:
# Assay in all cases: glycan array binding signal (z-score within array); higher = stronger binding
# Details in all cases: glycan notation: IUPAC condensed, linker removed
# [1] = molecular target: GlcNAc(b1-3)Gal(b1-4)GlcNAc(b1-2)Man(a1-3)[GlcNAc(b1-3)Gal(b1-4)GlcNAc(b1-2)Man(a1-6)]Man(b1-4)GlcNAc(b1-4)[Fuc(a1-6)]GlcNAc
# Procedure, shortened: (§1)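 Columns mapping to the same glycan were averaged after glycan names were converted to IUPAC-condensed notation. The data come from 3228 arrays in the Consortium for Functional Glycomics database, limited to those with an available protein sequence. Binding is reported as a within-array Z-score averaged across arrays of one protein sequence and across linkers.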
# [2] = molecular target: GlcNAc(b1-3)Gal(b1-4)GlcNAc(b1-2)[GlcNAc(b1-3)Gal(b1-4)GlcNAc(b1-6)]Man(a1-6)[GlcNAc(b1-3)Gal(b1-4)GlcNAc(b1-2)Man(a1-3)]Man(b1-4)GlcNAc(b1-4)GlcNAc
# Procedure, shortened: as §1
# [3] = molecular target: GlcNAc(b1-3)Gal(b1-4)GlcNAc(b1-3)Gal(b1-4)GlcNAc
# Procedure, shortened: as §1
# [4] = molecular target: GlcNAc(b1-3)Gal(b1-4)GlcNAc(b1-3)Gal(b1-4)GlcNAc(b1-2)Man(a1-3)[GlcNAc(b1-3)Gal(b1-4)GlcNAc(b1-3)Gal(b1-4)GlcNAc(b1-2)Man(a1-6)]Man(b1-4)GlcNAc(b1-4)GlcNAc
# Procedure, shortened: as §1
# [5] = molecular target: GlcNAc(b1-3)Gal(b1-4)GlcNAc(b1-3)Gal(b1-4)GlcNAc(b1-2)Man(a1-3)[GlcNAc(b1-3)Gal(b1-4)GlcNAc(b1-3)Gal(b1-4)GlcNAc(b1-2)Man(a1-6)]Man(b1-4)GlcNAc(b1-4)[Fuc(a1-6)]GlcNAc
# Procedure, shortened: as §1
# [6] = molecular target: GlcNAc(b1-3)Gal(b1-4)GlcNAc(b1-3)Gal(b1-4)GlcNAc(b1-2)[GlcNAc(b1-3)Gal(b1-4)GlcNAc(b1-3)Gal(b1-4)GlcNAc(b1-6)]Man(a1-6)[GlcNAc(b1-3)Gal(b1-4)GlcNAc(b1-3)Gal(b1-4)GlcNAc(b1-2)Man(a1-3)]Man(b1-4)GlcNAc(b1-4)[Fuc(a1-6)]GlcNAc
# Procedure, shortened: as §1
# [7] = molecular target: GlcNAc(b1-3)Gal(b1-4)GlcNAc(b1-3)Gal(b1-4)GlcNAc(b1-3)Gal(b1-4)GlcNAc(b1-2)Man(a1-3)[GlcNAc(b1-3)Gal(b1-4)GlcNAc(b1-3)Gal(b1-4)GlcNAc(b1-3)Gal(b1-4)GlcNAc(b1-2)Man(a1-6)]Man(b1-4)GlcNAc(b1-4)GlcNAc
# Procedure, shortened: as §1
# [8] = molecular target: GlcNAc(b1-3)Gal(b1-4)GlcNAc(b1-3)Gal(b1-4)GlcNAc(b1-3)Gal(b1-4)GlcNAc(b1-2)Man(a1-3)[GlcNAc(b1-3)Gal(b1-4)GlcNAc(b1-3)Gal(b1-4)GlcNAc(b1-3)Gal(b1-4)GlcNAc(b1-2)Man(a1-6)]Man(b1-4)GlcNAc(b1-4)[Fuc(a1-6)]GlcNAc
# Procedure, shortened: as §1
# [9] = molecular target: GlcNAc(b1-3)Gal(b1-4)GlcNAc(b1-3)Gal(b1-4)GlcNAc(b1-3)Gal(b1-4)GlcNAc(b1-2)[GlcNAc(b1-3)Gal(b1-4)GlcNAc(b1-3)Gal(b1-4)GlcNAc(b1-3)Gal(b1-4)GlcNAc(b1-6)]Man(a1-6)[GlcNAc(b1-3)Gal(b1-4)GlcNAc(b1-3)Gal(b1-4)GlcNAc(b1-3)Gal(b1-4)GlcNAc(b1-2)Man(a1-3)]Man(b1-4)GlcNAc(b1-4)[Fuc(a1-6)]GlcNAc
# Procedure, shortened: as §1
# [10] = molecular target: GlcNAc(b1-3)Gal(b1-4)GlcNAc(b1-3)Gal(b1-4)GlcNAc(b1-3)Gal(b1-4)GlcNAc(b1-3)Gal(b1-4)GlcNAc(b1-2)Man(a1-3)[GlcNAc(b1-3)Gal(b1-4)GlcNAc(b1-3)Gal(b1-4)GlcNAc(b1-3)Gal(b1-4)GlcNAc(b1-3)Gal(b1-4)GlcNAc(b1-2)Man(a1-6)]Man(b1-4)GlcNAc(b1-4)GlcNAc
# Procedure, shortened: as §1
# [11] = molecular target: GlcNAc(b1-3)Gal(b1-4)GlcNAc(b1-3)Gal(b1-4)GlcNAc(b1-3)Gal(b1-4)GlcNAc(b1-3)Gal(b1-4)GlcNAc(b1-2)Man(a1-3)[GlcNAc(b1-3)Gal(b1-4)GlcNAc(b1-3)Gal(b1-4)GlcNAc(b1-3)Gal(b1-4)GlcNAc(b1-3)Gal(b1-4)GlcNAc(b1-2)Man(a1-6)]Man(b1-4)GlcNAc(b1-4)[Fuc(a1-6)]GlcNAc
# Procedure, shortened: as §1
# [12] = molecular target: GlcNAc(b1-3)Gal(b1-4)GlcNAc(b1-3)Gal(b1-4)GlcNAc(b1-3)Gal(b1-4)GlcNAc(b1-3)Gal(b1-4)GlcNAc(b1-2)[GlcNAc(b1-3)Gal(b1-4)GlcNAc(b1-3)Gal(b1-4)GlcNAc(b1-3)Gal(b1-4)GlcNAc(b1-3)Gal(b1-4)GlcNAc(b1-6)]Man(a1-6)[GlcNAc(b1-3)Gal(b1-4)GlcNAc(b1-3)Gal(b1-4)GlcNAc(b1-3)Gal(b1-4)GlcNAc(b1-3)Gal(b1-4)GlcNAc(b1-2)Man(a1-3)]Man(b1-4)GlcNAc(b1-4)[Fuc(a1-6)]GlcNAc
# Procedure, shortened: as §1
# [13] = molecular target: GlcNAc(b1-3)Gal(b1-4)GlcNAc(b1-3)Gal(b1-4)GlcNAc(b1-3)GalNAc
# Procedure, shortened: as §1
# [14] = molecular target: GlcNAc(b1-3)Gal(b1-4)GlcNAc(b1-3)GalNAc
# Procedure, shortened: as §1
# [15] = molecular target: GlcNAc(b1-3)Gal(b1-4)GlcNAc(b1-3)[GlcNAc(b1-3)Gal(b1-4)GlcNAc(b1-3)]GalNAc
# Procedure, shortened: as §1
# [16] = molecular target: GlcNAc(b1-3)Gal(b1-4)GlcNAc(b1-6)[Gal(b1-3)]GalNAc
# Procedure, shortened: as §1
# [17] = molecular target: GlcNAc(b1-3)Gal(b1-4)GlcNAc(b1-6)[GlcNAc(b1-3)Gal(b1-3)]GalNAc
# Procedure, shortened: as §1
# [18] = molecular target: GlcNAc(b1-3)Gal(b1-4)GlcNAc(b1-6)[GlcNAc(b1-3)]Gal(b1-4)GlcNAc
# Procedure, shortened: as §1
# GlcNAc(b1-3)GalNAc = molecular target: GlcNAc(b1-3)GalNAc
# Procedure, shortened: as §1
# GlcNAc(b1-3)Man = molecular target: GlcNAc(b1-3)Man
# Procedure, shortened: as §1
# [19] = molecular target: GlcNAc(b1-3)[GlcNAc(b1-4)][GlcNAc(b1-6)]GlcNAc
# Procedure, shortened: as §1
# [20] = molecular target: GlcNAc(b1-3)[GlcNAc(b1-6)]Gal(b1-4)GlcNAc
# Procedure, shortened: as §1
# [21] = molecular target: GlcNAc(b1-3)[GlcNAc(b1-6)]GalNAc
# Procedure, shortened: as §1
# [22] = molecular target: GlcNAc(b1-4)Gal(b1-4)GlcNAc
# Procedure, shortened: as §1
# GlcNAc(b1-4)GlcNAc = molecular target: GlcNAc(b1-4)GlcNAc
# Procedure, shortened: as §1
# [23] = molecular target: GlcNAc(b1-4)GlcNAc(b1-4)GlcNAc
# Procedure, shortened: as §1
# [24] = molecular target: GlcNAc(b1-4)GlcNAc(b1-4)GlcNAc(b1-4)GlcNAc(b1-4)GlcNAc
# Procedure, shortened: as §1
# [25] = molecular target: GlcNAc(b1-4)GlcNAc(b1-4)GlcNAc(b1-4)GlcNAc(b1-4)GlcNAc(b1-4)GlcNAc
# Procedure, shortened: as §1
# [26] = molecular target: GlcNAc(b1-4)[GlcNAc(b1-6)]GalNAc
# Procedure, shortened: as §1
# [27] = molecular target: GlcNAc(b1-6)Gal(b1-4)GlcNAc
# Procedure, shortened: as §1
# GlcNAc(b1-6)GalNAc = molecular target: GlcNAc(b1-6)GalNAc
# Procedure, shortened: as §1
# GlcNAc3Prop(b1-4)GlcNAc = molecular target: GlcNAc3Prop(b1-4)GlcNAc
# Procedure, shortened: as §1
# [28] = molecular target: GlcNAc6S(b1-3)Gal(b1-4)GlcNAc
# Procedure, shortened: as §1
# Kdn(a2-3)Gal(b1-3)GalNAc = molecular target: Kdn(a2-3)Gal(b1-3)GalNAc
# Procedure, shortened: as §1
# Kdn(a2-3)Gal(b1-3)GlcNAc = molecular target: Kdn(a2-3)Gal(b1-3)GlcNAc
# Procedure, shortened: as §1
# Kdn(a2-3)Gal(b1-4)Glc = molecular target: Kdn(a2-3)Gal(b1-4)Glc
# Procedure, shortened: as §1
# Kdn(a2-3)Gal(b1-4)GlcNAc = molecular target: Kdn(a2-3)Gal(b1-4)GlcNAc
# Procedure, shortened: as §1
# [29] = molecular target: Kdn(a2-3)Gal(b1-4)[Fuc(a1-3)]GlcNAc
# Procedure, shortened: as §1
binder,measurement,setting,value
B1,glycan array binding signal (z-score),[1],4.49
same,glycan array binding signal (z-score),[2],3.71
same,glycan array binding signal (z-score),[3],3.53
same,glycan array binding signal (z-score),[4],3.9
same,glycan array binding signal (z-score),[5],6.15
same,glycan array binding signal (z-score),[6],3.27
same,glycan array binding signal (z-score),[7],4.24
same,glycan array binding signal (z-score),[8],7.22
same,glycan array binding signal (z-score),[9],3.81
same,glycan array binding signal (z-score),[10],7.34
same,glycan array binding signal (z-score),[11],7.63
same,glycan array binding signal (z-score),[12],4.18
same,glycan array binding signal (z-score),[13],1.35
same,glycan array binding signal (z-score),[14],2.81
same,glycan array binding signal (z-score),[15],4.33
same,glycan array binding signal (z-score),[16],2.11
same,glycan array binding signal (z-score),[17],3.35
same,glycan array binding signal (z-score),[18],2.77
same,glycan array binding signal (z-score),GlcNAc(b1-3)GalNAc,1.91
same,glycan array binding signal (z-score),GlcNAc(b1-3)Man,3.61
same,glycan array binding signal (z-score),[19],0.061
same,glycan array binding signal (z-score),[20],2.55
same,glycan array binding signal (z-score),[21],2.08
same,glycan array binding signal (z-score),[22],0.414
same,glycan array binding signal (z-score),GlcNAc(b1-4)GlcNAc,0.572
same,glycan array binding signal (z-score),[23],0.65
same,glycan array binding signal (z-score),[24],0.471
same,glycan array binding signal (z-score),[25],0.18
same,glycan array binding signal (z-score),[26],0.407
same,glycan array binding signal (z-score),[27],0.578
same,glycan array binding signal (z-score),GlcNAc(b1-6)GalNAc,0.967
same,glycan array binding signal (z-score),GlcNAc3Prop(b1-4)GlcNAc,0.182
same,glycan array binding signal (z-score),[28],-0.251
same,glycan array binding signal (z-score),Kdn(a2-3)Gal(b1-3)GalNAc,-0.29
same,glycan array binding signal (z-score),Kdn(a2-3)Gal(b1-3)GlcNAc,-0.298
same,glycan array binding signal (z-score),Kdn(a2-3)Gal(b1-4)Glc,-0.297
same,glycan array binding signal (z-score),Kdn(a2-3)Gal(b1-4)GlcNAc,-0.299
same,glycan array binding signal (z-score),[29],-0.292

# Reference: the supplement of paper PMC8728848
